Measurements taken from PMC10312969.
Residue numbers refer to the chain shown, from its start. These are yes or no findings as the source states them, for the method shown. Binding seen in cells or lysates may run through a third protein. Some entries that bind do so weakly or less than the wild type. Tags and fused reporters may be left off the sequences shown. Each block holds one substance with its values, some of them ahead of it.

Chains of the proteins cited; added tags and fusions are not shown.
UniProt Q8K1M6: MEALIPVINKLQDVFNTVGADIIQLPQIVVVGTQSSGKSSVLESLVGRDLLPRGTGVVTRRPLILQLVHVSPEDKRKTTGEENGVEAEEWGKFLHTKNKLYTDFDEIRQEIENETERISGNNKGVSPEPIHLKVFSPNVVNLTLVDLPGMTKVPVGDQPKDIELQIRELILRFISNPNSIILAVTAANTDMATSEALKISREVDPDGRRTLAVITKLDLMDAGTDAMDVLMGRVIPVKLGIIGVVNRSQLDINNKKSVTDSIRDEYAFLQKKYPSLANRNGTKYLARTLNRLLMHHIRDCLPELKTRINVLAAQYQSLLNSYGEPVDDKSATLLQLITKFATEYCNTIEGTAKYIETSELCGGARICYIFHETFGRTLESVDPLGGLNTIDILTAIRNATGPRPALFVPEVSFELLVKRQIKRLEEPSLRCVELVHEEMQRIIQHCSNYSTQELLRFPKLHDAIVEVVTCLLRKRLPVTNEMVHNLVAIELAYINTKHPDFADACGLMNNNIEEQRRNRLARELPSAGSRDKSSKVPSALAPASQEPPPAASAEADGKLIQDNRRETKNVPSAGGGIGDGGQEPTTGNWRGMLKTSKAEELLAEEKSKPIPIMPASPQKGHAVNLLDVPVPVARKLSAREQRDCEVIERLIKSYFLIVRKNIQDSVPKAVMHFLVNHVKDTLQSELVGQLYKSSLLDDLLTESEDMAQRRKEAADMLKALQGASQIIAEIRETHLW
UniProt P30153: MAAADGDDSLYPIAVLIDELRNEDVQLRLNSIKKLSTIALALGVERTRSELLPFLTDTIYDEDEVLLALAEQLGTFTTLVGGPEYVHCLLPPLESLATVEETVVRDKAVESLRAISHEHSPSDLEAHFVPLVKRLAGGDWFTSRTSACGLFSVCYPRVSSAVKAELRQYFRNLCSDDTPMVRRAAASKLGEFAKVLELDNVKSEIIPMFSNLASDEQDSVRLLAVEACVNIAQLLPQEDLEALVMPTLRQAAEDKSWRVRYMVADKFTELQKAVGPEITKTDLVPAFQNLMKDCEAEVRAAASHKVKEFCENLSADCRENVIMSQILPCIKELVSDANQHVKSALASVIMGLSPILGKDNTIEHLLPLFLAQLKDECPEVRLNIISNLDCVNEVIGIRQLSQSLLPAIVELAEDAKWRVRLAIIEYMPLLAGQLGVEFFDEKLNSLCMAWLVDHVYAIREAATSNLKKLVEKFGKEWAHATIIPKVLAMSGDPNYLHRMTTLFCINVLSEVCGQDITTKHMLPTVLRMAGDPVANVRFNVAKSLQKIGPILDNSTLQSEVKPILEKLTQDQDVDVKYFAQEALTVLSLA
UniProt Q96KP1: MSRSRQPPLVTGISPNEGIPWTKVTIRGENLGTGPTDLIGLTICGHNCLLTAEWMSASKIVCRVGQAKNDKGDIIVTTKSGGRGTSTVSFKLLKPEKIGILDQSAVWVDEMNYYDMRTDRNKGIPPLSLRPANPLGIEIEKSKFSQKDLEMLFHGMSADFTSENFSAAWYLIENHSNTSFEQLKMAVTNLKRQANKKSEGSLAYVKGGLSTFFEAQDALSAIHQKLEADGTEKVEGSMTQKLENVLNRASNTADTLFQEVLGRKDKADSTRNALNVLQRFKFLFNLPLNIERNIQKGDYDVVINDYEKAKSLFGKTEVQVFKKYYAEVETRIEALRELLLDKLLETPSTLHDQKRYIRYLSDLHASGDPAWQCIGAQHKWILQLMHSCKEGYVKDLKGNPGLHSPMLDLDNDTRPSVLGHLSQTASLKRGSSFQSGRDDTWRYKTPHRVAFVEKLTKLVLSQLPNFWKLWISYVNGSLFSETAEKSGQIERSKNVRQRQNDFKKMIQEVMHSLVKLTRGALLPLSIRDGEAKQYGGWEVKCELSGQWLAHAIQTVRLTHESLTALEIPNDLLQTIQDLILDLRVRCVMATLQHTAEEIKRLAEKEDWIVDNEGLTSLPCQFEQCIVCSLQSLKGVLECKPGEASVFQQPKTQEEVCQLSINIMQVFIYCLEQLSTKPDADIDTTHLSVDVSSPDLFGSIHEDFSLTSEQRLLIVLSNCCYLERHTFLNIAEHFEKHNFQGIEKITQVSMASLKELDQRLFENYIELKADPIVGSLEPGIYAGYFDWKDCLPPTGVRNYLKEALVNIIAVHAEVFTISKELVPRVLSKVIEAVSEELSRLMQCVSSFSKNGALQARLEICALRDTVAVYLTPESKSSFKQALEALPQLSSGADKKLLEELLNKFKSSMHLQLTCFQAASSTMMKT

Assays:
Flag-RalA^WT [1] = target: T1, Flag-RalA^WT (UniProt P11233); assay: co-IP; co-transfected HEK293T cells; ANTI-FLAG M2 affinity gel, 4°C overnight; lysis buffer (25 mM Tris-HCl, 130 mM NaCl, 10 mM MgCl2, 10% glycerol, 0.5% NP-40) or Drp1 buffer (25 mM Tris, 50 mM NaCl, 0.5 mM MgCl2, 10% glycerol, 0.5% NP-40)
T1 sequence: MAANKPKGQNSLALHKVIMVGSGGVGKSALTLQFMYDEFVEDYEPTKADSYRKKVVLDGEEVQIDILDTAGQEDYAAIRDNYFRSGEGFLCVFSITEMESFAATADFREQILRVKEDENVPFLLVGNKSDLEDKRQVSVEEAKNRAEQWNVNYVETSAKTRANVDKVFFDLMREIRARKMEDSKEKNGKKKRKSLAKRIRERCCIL

Flag-RalA^WT [2] = target: T1, Flag-RalA^WT; assay: pull-down; Flag-RalA^WT held on ANTI-FLAG M2 affinity gel and washed, incubated with GFP-PP2Aa HEK293T lysate at 4°C overnight; lysis buffer 25 mM Tris-HCl, 130 mM NaCl, 10 mM MgCl2, 10% glycerol, 0.5% NP-40; only the target purified
Flag-RalA^WT [3] = target: T1, Flag-RalA^WT; assay: pull-down; Flag-RalA^WT on ANTI-FLAG M2 beads loaded with 200 μM GDP (1 hr, 25°C), then incubated with GFP-PP2Aa HEK293T lysate; only the target purified
Flag-RalA^WT [4] = target: T1, Flag-RalA^WT; assay: pull-down; Flag-RalA^WT on ANTI-FLAG M2 beads loaded with 2 mM GTPγS (1 hr, 25°C), then incubated with GFP-PP2Aa HEK293T lysate; only the target purified
[5] = target: T2, RalA^S28N (dominant negative mutant), Flag-tagged (UniProt P11233); assay: co-IP; co-transfected HEK293T cells; ANTI-FLAG M2 affinity gel, 4°C overnight; lysis buffer (25 mM Tris-HCl, 130 mM NaCl, 10 mM MgCl2, 10% glycerol, 0.5% NP-40) or Drp1 buffer (25 mM Tris, 50 mM NaCl, 0.5 mM MgCl2, 10% glycerol, 0.5% NP-40)
T2 sequence: T1 sequence with S28N

[6] = target: T3, RalA^G23V (constitutively active mutant), Flag-tagged (UniProt P11233); assay: as above
T3 sequence: T1 sequence with G23V

- binding (Flag-RalA^WT [1]): binds
Substance: Drp1 (from UniProt Q8K1M6 1-736)

- binding (Flag-RalA^WT [2]): binds
- binding (Flag-RalA^WT [4]): binds
Substance: GFP-PP2Aa (protein phosphatase 2A subunit A alpha) (from UniProt P30153 1-589)
- binding (Flag-RalA^WT [3]): no binding (condition: RalA loaded with 200 μM GDP)

- binding [5]: no binding
- binding [6]: binds
Substance: Sec5 (from UniProt Q96KP1 1-924)

- binding [6]: binds
Substance: PP2Aa co-expressed in HEK293T cells (tag not told) (from UniProt P30153 1-589)
